Results from publication PMC4336329 (PLoS ONE, 2015).
The campaign covered roughly 310,000 compounds. About 2,200 (0.71%) showed an effect of 50% or more. Effects have a minus sign here. This is one part of the list.

Each compound was assayed against human ether-à-go-go-related gene (hERG) potassium channel (human, UniProt Q12809) (assay: primary screen, population patch clamp on CHO cells stably expressing hERG).
Chain of human ether-à-go-go-related gene (hERG) potassium channel (Q12809 whole entry, looked up): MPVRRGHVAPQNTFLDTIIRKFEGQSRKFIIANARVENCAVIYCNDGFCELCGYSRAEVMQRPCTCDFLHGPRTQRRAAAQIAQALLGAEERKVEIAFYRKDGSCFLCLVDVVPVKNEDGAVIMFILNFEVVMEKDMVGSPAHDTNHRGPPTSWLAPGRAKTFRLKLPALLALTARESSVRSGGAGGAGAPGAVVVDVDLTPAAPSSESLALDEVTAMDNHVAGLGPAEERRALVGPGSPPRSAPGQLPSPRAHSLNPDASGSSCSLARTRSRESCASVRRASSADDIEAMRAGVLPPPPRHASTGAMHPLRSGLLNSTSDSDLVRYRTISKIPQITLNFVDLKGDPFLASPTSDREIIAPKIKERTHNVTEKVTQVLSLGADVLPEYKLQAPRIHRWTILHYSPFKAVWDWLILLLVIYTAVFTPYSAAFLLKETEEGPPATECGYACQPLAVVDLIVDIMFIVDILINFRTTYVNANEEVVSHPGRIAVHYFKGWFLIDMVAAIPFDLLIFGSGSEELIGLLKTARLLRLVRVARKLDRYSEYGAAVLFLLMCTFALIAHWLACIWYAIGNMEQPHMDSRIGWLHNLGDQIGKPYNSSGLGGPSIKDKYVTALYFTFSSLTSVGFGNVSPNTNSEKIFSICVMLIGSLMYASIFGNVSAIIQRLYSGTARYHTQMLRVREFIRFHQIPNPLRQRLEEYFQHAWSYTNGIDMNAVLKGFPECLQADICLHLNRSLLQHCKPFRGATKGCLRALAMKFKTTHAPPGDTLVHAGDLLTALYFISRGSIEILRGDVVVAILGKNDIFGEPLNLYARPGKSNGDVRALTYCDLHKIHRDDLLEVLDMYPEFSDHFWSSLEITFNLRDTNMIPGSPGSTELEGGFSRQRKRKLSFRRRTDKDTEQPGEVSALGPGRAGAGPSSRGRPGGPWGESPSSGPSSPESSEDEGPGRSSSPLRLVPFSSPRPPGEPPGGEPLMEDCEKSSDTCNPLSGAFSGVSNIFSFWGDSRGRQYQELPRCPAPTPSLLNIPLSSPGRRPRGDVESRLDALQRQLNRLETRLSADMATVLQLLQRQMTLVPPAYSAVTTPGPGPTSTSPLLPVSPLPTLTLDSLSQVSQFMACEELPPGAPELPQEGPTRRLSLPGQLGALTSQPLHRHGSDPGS

Point of comparison: `O=C(N/N=C/c1c(O)n(-c2ccccc2Cl)c(=O)c2ccccc12)C1COc2ccccc2O1` (centres unmarked), “hERG current change (%, negative = inhibition) at 1uM” value 14.1%. Against it:
- COc1ccc(CC(=O)Oc2ccc(C)cc2C)cc1 — lower, 9.54%
- Cc1c(C(=O)Nc2ccc3c(c2)OCCO3)sc2ncnc(N3CCCCC3C)c12 (centres unmarked) — higher, 16.8%
- CN1c2ccccc2C(=O)NC1c1ccc(Cl)cc1 (centres unmarked) — lower, 8.1%
- Cc1cc(NCC(c2ccccc2)c2ccccc2)n2ncnc2n1 — lower, -6.98%
- Cc1ccc(-c2nc3ncccc3o2)cc1NC(=O)c1ccccc1 — lower, -0.137%
- Cc1cccc(NC(=O)CC2C(=O)NCCN2C(=O)Nc2ccc(Cl)cc2)c1 (centres unmarked) — lower, 5.27%
- Cc1nn(-c2ccccc2C(F)(F)F)c(=O)c2noc(C)c12 — lower, 13.3%
- CCN(CC(=O)Nc1ccccc1C(=O)OC)S(=O)(=O)c1ccc(OC)cc1 — lower, -5.84%
- CCOC(=O)N1CCN(CC(O)c2ccccc2)CC1.O=C(O)C(=O)O (centres unmarked) — lower, 12.5%
- O=C(c1ccc(S(=O)(=O)Nc2cccc(C(F)(F)F)c2)cc1)N1CCOCC1 — lower, 9.08%
- CCCCn1c(N)c(N(CC(C)C)C(=O)CN(C)Cc2cccc(OC)c2)c(=O)[nH]c1=O — lower, 2.45%
- Nc1ccccc1Sc1cc(Cl)nnc1Cl — lower, 3.55%
- Cn1c(Cc2ccccc2)nnc1SCC(=O)Nc1ccc2c(c1)OCCO2 — lower, -8.79%
- Cc1ccc(S(=O)(=O)N(C)CC(=O)O/N=C(\N)c2ccccn2)cc1 — lower, 10.5%
- CS(=O)(=O)N(CC(=O)NCc1ccc2c(c1)OCO2)C1CCCCC1 — lower, 3.44%
- Cc1cc(NC(=O)c2ccc(C)c([N+](=O)[O-])c2)no1 — higher, 15.8%
- Cc1cccc(NC(=S)N(C)C2(c3ccccc3Cl)CCCCC2=O)c1 (centres unmarked) — lower, 4.38%
- COc1ccc(C2CC(c3ccc(Cl)c(Cl)c3)Nc3nc(N)nn32)cc1 (centres unmarked) — lower, -3.36%
- Cc1ccc(-c2cc(=O)[nH]c(NCc3ccccc3)n2)cc1 — higher, 14.9%
- COCCCn1c(SCC(=O)Nc2ccc(NC(C)=O)cc2)nc2sc3c(c2c1=O)CCC3 — higher, 18.9%
- CCCn1c(CCC(=O)O)nc2cc(S(=O)(=O)N(CC)CC)ccc21 — lower, 0.496%
- N=C1/C(=C\c2ccc(-c3cc(Cl)cc(Cl)c3)o2)C(=O)N=C2SC=C(c3ccccc3)N12 — lower, -4.59%
- CCOC(=O)c1c[nH]c2c(C)cc(C)cc2c1=O — lower, 12.8%
- CCOC(=O)C1=C(C)NC(=O)C1(NC(=O)c1cccnc1)C(F)(F)F (centres unmarked) — lower, 5.63%
- Cc1nn(C)cc1-c1csc(N)n1 — lower, 9.31%
- Cc1nn(C)cc1C(C(=O)NC1CCCCC1)N(C(=O)Cc1cccs1)c1ccc(F)cc1 (centres unmarked) — lower, 5.81%
- CC(C)CCNC(=O)c1cnn2c(C(F)(F)F)cc(-c3ccco3)nc12 — lower, 6.03%
- Cc1ccc(-n2cccc2/C=C2/C(=N)N3C(=NC2=O)SN=C3S(C)(=O)=O)cc1Cl — lower, 11.1%
- Cn1nc(-c2ccccc2)c2cc([N+](=O)[O-])ccc21 — lower, 13.1%
- CC1=C(C(=O)Nc2ccc(CC(=O)NCc3ccccc3C)cc2)SCCO1 — lower, 5.66%
- O=C(CNC(=O)c1ccco1)NCCCc1ccccc1 — lower, 7.92%
- CCC(C)n1c(OC)nc2c1c(=O)n(C)c(=O)n2C (centres unmarked) — lower, 13.4%
- Cc1ccc2nc(NC(=O)c3ccco3)sc2c1 — lower, 11.7%
- CC1CC(C)(C)n2c(O)c(N=NC(N)=S)c3cccc1c32 (centres unmarked) — higher, 22%
- CCc1nnc(NC(=O)Nc2ccc(OC)cc2)s1 — lower, 10.7%
- CCCCCOC(=O)CSc1n[nH]c(=O)[nH]c1=O — lower, -2.68%
- COc1ccc(S(=O)(=O)NCC(=O)N(CC(=O)NCc2ccco2)Cc2ccccc2)cc1 — lower, 2.88%
- CCc1nn(C(C)C(=O)Nc2cccc(C)c2C)c(=O)c2cc3occc3n12 (centres unmarked) — lower, 8.38%
- OCCNc1c2ccccc2nc2ccccc12 — lower, -3.35%
- CCN1c2nc3c(C)cccn3c(=O)c2CC2(C(=O)N(C)C(=O)N(C)C2=O)C1C (centres unmarked) — lower, 5.07%
- CCOc1ccc(NC(=S)NNC(=S)Nc2cccc(C(F)(F)F)c2)cc1 — higher, 14.5%
- COc1ccc(CC(=O)N2CCOCC2)cc1OC — lower, 5.67%
- COC(=O)C1=C(C)N(c2ccc(Cl)cc2)/C(=C/c2cccs2)C1=O — lower, 10.6%
- Cc1cc(=O)[nH]c(SCC(=O)NCC2CCCCC2)c1C#N — higher, 16%
- COCCNC(=O)CN1C(=O)c2cccc3cccc1c23 — higher, 17.3%
- CCOC(=O)CC(NC(=O)C1c2ccccc2Oc2ccccc21)c1ccc(C)cc1 (centres unmarked) — higher, 16.2%
- COc1ccc(/C(O)=C2/C(=O)C(=O)N(Cc3ccco3)C2c2cccs2)cc1 (centres unmarked) — higher, 19.5%
- Cc1c(C(=O)NCCCN2CCOCC2)oc2ccc(S(=O)(=O)N3CCOCC3)cc12 — higher, 20.7%
- CCOC(=O)C1=C(C)N=c2s/c(=C\c3ccc(OC(C)=O)c(OCC)c3)c(=O)n2C1/C=C/c1ccccc1 (centres unmarked) — lower, 13.6%
- CC1=NN(C(N)=S)C(=O)C1N=Nc1ccc([N+](=O)[O-])cc1 (centres unmarked) — lower, 5.26%
- C(=N\Nc1nc2ccccc2[nH]1)/C1CCCCC1 — lower, -6.22%
- NC(=O)CSc1nc2c(sc3ccccc32)c(=O)n1CCCC(=O)NCC1CCCO1 (centres unmarked) — lower, 8.31%
- COc1cc(/C=C/C(=O)O)cc(S(=O)(=O)Nc2cccc(S(=O)(=O)N3CCOCC3)c2)c1OC — lower, 9.38%
- COc1cccc(C(c2nnnn2Cc2ccc(F)cc2)N2CCC(C(N)=O)CC2)c1OC (centres unmarked) — lower, -6.74%
- O=S(=O)(NC1=NCCCCC1)c1ccc(Cl)cc1 — lower, 6.2%
